Broadly, the % Inhibition is the relative decrease from the control value, in per cent.

Each structure is given as a SMILES string. Among all 150,000 compounds or so, about 540 (0.36%) showed an effect of 50% or more. This is one part of the list.

The source of these data is ChEMBL document CHEMBL4888484, “Replenishing the malaria drug discovery pipeline: Screening and hit evaluation of the MMV Hit Generation Library 1 (HGL1) against asexual blood stage Plasmodium falciparum ,using a nano luciferase reporter read-out” (2022).

For this experiment, the system named is Plasmodium falciparum. In words: Primary screen in NF54 nanoGlo assay, in single point, at 2uM, 72h; a lower Z score goes with more inhibition. It is filed as functional, Erythrocyte. The following applies: timepoint 72 hour.
For `c1cc(Oc2ccc3nnnn3n2)cc(-n2cncn2)c1`, the “% Inhibition” value is -10% and the Z score is listed as 1.51.
The matching figures for `Cc1ccc(NC(C)C)c(NC(=O)CS(=O)(=O)C(C)(C)C)c1`: 2% and -0.2.
`COc1ccc(CC(=O)Nc2ccc3c(c2)C(=O)N(C)c2cc(C)ccc2O3)cc1`: the “% Inhibition” value is reported as -1% and the Z score is 0.22.
Consider `CN(C(=O)NCc1nn(C)c2cccc(Cl)c12)C1CCS(=O)(=O)CC1`, for which the “% Inhibition” value came out at 3% and the Z score is listed as -0.41.
For `COCc1ccccc1C=C(C)CN1CCO[C@@H](CN2CCN(C)CC2)C1`, in that order: -2% and 0.43.
The matching figures for `O=C(Nc1cccc(-c2nnco2)c1)c1cc(F)cc(F)c1`: -22% and 1.83.
For `Cc1ccccc1[C@@H](NC(=O)NCCN1C(=O)CNC1=O)C(C)(C)C`, in that order: 4% and -0.58.
`CCC(C)C(NC(=O)OCc1ccccc1)C(=O)NC1CCN(Cc2ccccc2)CC1` (stereo unspecified): the “% Inhibition” value is -7% and the Z score stood at 1.36.
As for `O=C1CC[C@@H](C(=O)N(Cc2ccccc2)Cc2ccccc2)N1`, the “% Inhibition” value was determined as 2% and the Z score is reported as -0.24.
For the molecule `CN(C)CCn1ccc(NC(=O)N(C)Cc2nccn2C(F)F)n1`, the “% Inhibition” value is listed as 0% and the Z score came out at 0.03.
Consider `Cc1ccc2c(Nc3cccc(Cl)c3C)c(C(=O)N3CCCCCC3)cnc2n1`, for which the “% Inhibition” value was -2% and the Z score came out at 0.37.
The matching figures for `O=C1COc2ccc(-n3ccnc3-c3cccc(-n4cccn4)c3)cc2N1`: -13% and 1.45.
On to `CCC(=O)N1CCc2cc(N3C[C@@H](C(=O)NCc4ccc(F)cc4)CC3=O)ccc21`, for which the “% Inhibition” value is given as -1% and the Z score worked out at 0.14.
With `CONC(=O)C1(NC2=NS(=O)(=O)c3ccccc32)CCCC1`, the “% Inhibition” value is listed as 0% and the Z score is -0.05.
For the molecule `COc1cccc(Cn2c(C)c(CNC3CCCCCC3)c(C(=O)O)c2C)c1`, the “% Inhibition” value is listed as 5% and the Z score is listed as -0.89.
Regarding `COCc1nc(-c2ccc(C)nc2)n(CCO)n1`, the “% Inhibition” value was -7% and the Z score came to 1.38.
Take `COc1ccc(NC(=O)Cn2cc(-c3nnc(C(C)C)o3)ccc2=O)cc1`: the “% Inhibition” value is on record as -8% and the Z score came out at 1.35.
The matching figures for `Cc1nn(C)c(C)c1[C@H](C)c1nc(COCC(F)(F)C(F)F)no1`: 7% and -1.23.
The matching figures for `CCc1oc2c(Cl)cc(NC(=O)N3C[C@@H]4CC[C@H](C3)C(=O)N4)cc2c1C`: 3% and -0.63.
On to `Cc1ccc(C)c(C2CN(C(=O)c3cc(C)on3)C(C)CO2)c1` (stereo unspecified), for which the “% Inhibition” value was -12% and the Z score came to 2.38.
With `O=C(CNCc1cccs1)NC1CCCCC1`, the “% Inhibition” value is given as -15% and the Z score is given as 1.56.
Take `Cc1cc(-c2ccc(C(=O)N3CCCCCCC3)cc2)cnc1-n1cnnc1`: the “% Inhibition” value was determined as 0% and the Z score was found to be 0.05.
In the case of `O=C(c1ccc2nc(N3C(=O)CCC3=O)sc2c1)N(CCO)c1ccccc1`, the “% Inhibition” value is reported as -31% and the Z score was 4.21.
